# Measurements reported in PubChem BioAssay AID624296 (National Center for Advancing Translational Sciences (NCATS), 2012).
# Hit rate of the full screen: of about 350,000 compounds, about 9,900 (2.8%) were called active. The inconclusive results got no clear call from the source; some entries with a clear call stand among them for comparison. Calls follow the shape of the dose curve; as a rule, active = well fitted activation curve with a large enough effect; inconclusive = small, poorly fitted or top-dose-only effect; inactive = no such curve, though single readings can be large or run the other way. Potencies of inconclusive entries are left out as doubtful fits.
# Assay: A quantitative high throughput screen for small molecules that induce DNA re-replication in MCF 10a normal breast cells. Also: nearly all actives have a fitted effect of over 50% in size. As to activity, positive = re-replication: % of control where 0% means no effect.
# Settings: MCF 10A DNA re-replication, Hoechst nuclear intensity, 48 h; activity, positive = re-replication: at 46.1 µM (top of the series)
# Potency is read from the fitted curve at half-maximal effect; tags tell the direction and shape of the fitted curve.
SMILES,Potency,"activity, positive = re-replication"
CCOC(=O)CSc1nnc(CNC(=O)c2cccc(C)c2)n1C,"inconclusive [activator, single point]",–
O=C(C1=C[C@H](c2coc3ccccc3c2=O)C[C@H](OCc2ccc(CO)cc2)O1)N1CCN(Cc2ccc3c(c2)OCO3)CC1,"inconclusive [activator, partial curve, poor fit]",–
COc1ccc(Cl)cc1NC(=O)CCN1C(=O)C2C3CCC(C3)C2C1=O (stereo unspecified),–,inactive: -19.1%
O=C(Nc1nnc(-c2ccccc2Cl)o1)c1nc2ccccc2s1,"inconclusive [activator, full curve, poor fit]",–
O=C(NCc1cccnc1)c1ccc([N+](=O)[O-])o1,active: 14.6 µM,–
Cc1ccc(N2C(=O)c3cccc4c(N)ccc(c34)C2=O)c2cccnc12,–,inconclusive: 30.4% [activator]
CNC(=S)N/N=C/c1cc(C)n(-c2ccc(Cl)c(Cl)c2)c1C,"inconclusive [activator, partial curve, poor fit]",–
CC(C)(C)c1ccc(C(=O)c2c[nH]c(C(=O)NCc3ccco3)c2)cc1,"inconclusive [activator, partial curve, poor fit]",–
CCC[C@@H](CN1CCC[C@H]1CN1C(N)=NC[C@@H]1Cc1ccccc1)N1C[C@@H](Cc2ccccc2)N(CCCC2CCCC2)C1=N,–,inactive: -10.8%
Cc1cccn2c(=O)c3cc(C(=O)NC4CCCCC4)c(=N)n(Cc4ccc(F)cc4)c3nc12,"inconclusive [activator, partial curve, poor fit]",–
CC1CCN(CCOc2ccc(C(=O)c3ccccc3)cc2)CC1,"inconclusive [activator, full curve, poor fit]",–
CCc1ccc(C(=O)C(C)OC(=O)c2nn(C)c(=O)c3ccccc23)cc1 (stereo unspecified),–,inactive: 2.85%
CC(C)Oc1ccc(S(=O)(=O)N2CCCCC2)cc1NC(=O)C1CSC2(C)CCC(=O)N12 (stereo unspecified),–,inactive: 12.6%
O=C(Cn1nc2ccccc2n1)N/N=C/c1cc(Cl)cc([N+](=O)[O-])c1O,"inconclusive [activator, single point]",–
CCOc1ccc2nc(NC(=O)c3cccc(-c4cc5ccccc5oc4=O)c3)sc2c1,"inconclusive [activator, partial curve, poor fit]",–
Cc1ccc(S(=O)(=O)N2CCCOC2)cc1,–,inactive: -17.6%
O=c1[nH]c(CN2CCN(c3ccc(O)cc3)CC2)nc2scc(-c3ccc(Cl)cc3)c12,"inconclusive [activator, full curve, poor fit]",–
CC1(C)N=C(SCC(=O)Nc2ccc(Cl)cc2Cl)C(c2ccccc2)=N1,"inconclusive [activator, single point]",–
CC1CCCCC1NC(=O)/C(C#N)=C/C=C/c1ccccc1[N+](=O)[O-] (stereo unspecified),active: 2.91 µM,–
O=C1OC(c2cc(Br)c(O)c(Br)c2)c2ccccc21 (stereo unspecified),"inconclusive [activator, single point]",–
O=C1N=C(N2CCOCC2)S/C1=C/c1ccc(-c2ccc(F)cc2)o1,"inconclusive [activator, single point]",–

SMILES,Potency,"activity, positive = re-replication"
CCOc1ccc(C(=O)NC(=S)NCc2cccnc2)cc1[N+](=O)[O-],"inconclusive [activator, partial curve, poor fit]",–
Cc1ccc(C(=O)Nc2nc(=O)n(C(=O)c3ccccc3C)s2)cc1,"inconclusive [activator, single point]",–
CC(=O)NC1=NN(C(C)=O)C(C)(c2ccc(Br)cc2)S1 (stereo unspecified),"inconclusive [activator, partial curve, poor fit]",–
CCCc1cc(=O)[nH]c(SCC(=O)N(CC)C2CCS(=O)(=O)C2)n1 (stereo unspecified),–,inactive: -0.814%
O=C(NC1CCCC1)C(c1ccsc1)N(C(=O)Cc1cccs1)c1ccc(F)cc1 (stereo unspecified),"inconclusive [activator, single point]",–
O=C(Nc1ccc2c(c1)OCO2)C1CC(c2ccc(F)cc2)=NO1 (stereo unspecified),"inconclusive [activator, single point]",–
COc1cc(C(=O)NCC(c2ccc(F)cc2)N2CCOCC2)ccc1OCc1ccccc1Cl (stereo unspecified),"inconclusive [activator, single point]",–
Clc1ccc(-n2cccc2CN2CCc3c([nH]c4ccccc34)C2c2ccccn2)nc1 (stereo unspecified),"inconclusive [activator, partial curve, poor fit]",–
CC(=O)N1CCCc2cc(S(=O)(=O)Nc3ccc(C)cc3C)ccc21,"inconclusive [activator, single point]",–
Nc1ccc2nn(-c3cc([N+](=O)[O-])ccc3O)nc2c1,–,inactive: 3.84%
CC1(C)C(=O)C2(CCCCC2)C(=O)OC1c1ccc(O)cc1 (stereo unspecified),"inconclusive [activator, partial curve, poor fit]",–
CCOC(=O)c1cnc2c(-c3ccccc3)c(-c3ccccc3)nn2c1C,"inconclusive [activator, single point]",–
Cc1ccc(CS(=O)(=O)c2ncc(Cl)c(C(=O)Nc3nnc(C(C)C)s3)n2)cc1,"inconclusive [activator, partial curve, poor fit]",–
CN(CC(=O)NC1CCN(Cc2ccccc2)CC1)S(=O)(=O)c1ccc(Cl)cc1,–,inactive: 0.0882%
O=C(CCc1nc(-c2ccccc2)no1)Nc1cccc(C(=O)NC2CC2)c1,–,inactive: -2.58%
COc1ccc(N(C)C(=O)CCC(=O)Nc2ccc3nc(N4CCOCC4)cc(C)c3c2)c(OC)c1,"inconclusive [activator, partial curve, poor fit]",–
COc1cccc(CNC(=S)Nc2ccc(Cl)cc2C)c1,"inconclusive [activator, partial curve, poor fit]",–
CC(/C=C/c1ccco1)=N/NC(=O)C1COc2ccccc2O1 (stereo unspecified),"inconclusive [activator, single point]",–
CC(=O)OC1CC(C)N(C(=O)c2ccccc2)c2ccc(C)cc21 (stereo unspecified),–,inactive: 9.21%
c1ccc(-c2ccccc2-c2nc(-c3cccnc3)no2)cc1,"inconclusive [activator, partial curve]",–
